# Source: PMC6212790
# This is one part of the list. At the low end of the ranking the order means little.
# Molecular target: T1, GST-Rok-C97-191 (UniProt O34857)
# T1 sequence: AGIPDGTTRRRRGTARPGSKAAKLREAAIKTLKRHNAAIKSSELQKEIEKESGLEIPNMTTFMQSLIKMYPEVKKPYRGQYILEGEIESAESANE
# Test: protein binding microarray;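 note: rank score from −0.5 (least bound) to 0.5 (best bound)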
# Details: Rok is a gene silencer of Bacillus subtilis; high values mean tight binding; most listed sequences are background and not binding sites; double strand, one strand shown
row,Sequence,binding signal
1,AGCCTGAT,-0.00651 E-score
2,ACCGCCCT,0.00575 E-score
3,TAAAATGA,0.174 E-score
4,CAAGGAGG,-0.291 E-score
5,ATAGCTAT,0.402 E-score
6,AGCACAGA,-0.182 E-score
7,GTGCGAAA,-0.101 E-score
8,CAAGTGGG,-0.0514 E-score
9,CCCATTAG,-0.0527 E-score
10,GTCCAAAA,-0.0954 E-score
11,ACCCGGTC,-0.167 E-score
12,CGATAATA,0.157 E-score
13,GACGCATC,-0.11 E-score
14,ATGCCCAC,-0.129 E-score
15,GTCTCATA,0.00498 E-score
16,CATGCGGC,-0.201 E-score
17,ACTGGATA,0.117 E-score
18,ATGCAAGG,0.0151 E-score
19,ACGTACAC,-0.0132 E-score
20,AATTTTAA,0.19 E-score
21,CCGCTTCC,-0.128 E-score
22,GCGCAAGC,-0.257 E-score
23,CGTGAACC,-0.0997 E-score
24,GAGTGCCC,-0.108 E-score
25,TAGCTTAA,0.0561 E-score

row,Sequence,binding signal
1,AGACACAC,-0.113 E-score
2,GCTGTACC,-0.0769 E-score
3,TCCATGAA,-0.102 E-score
4,CATAGGCG,-0.0494 E-score
5,TAACGTTA,0.339 E-score
6,ACAACCAG,-0.00331 E-score
7,AGTGGCAC,-0.117 E-score
8,CTTAGAGA,-0.0725 E-score
9,AGCCTTTC,-0.151 E-score
10,CTGGCCTA,-0.239 E-score
11,ACCAAAGT,-0.0178 E-score
12,GTTATGCA,0.256 E-score
13,ACCATATG,0.229 E-score
14,ATACATAA,0.273 E-score
15,CGGTTGTC,-0.0619 E-score
16,CCCAGGAG,-0.231 E-score
17,AACTTGAA,0.0361 E-score
18,CAGGCAGC,-0.3 E-score
19,ACTTTTGG,-0.12 E-score
20,ACATTGGA,0.129 E-score
21,ATTACTCC,0.158 E-score
22,ACTATATG,0.283 E-score
23,CGCGTTTA,0.0562 E-score
24,AGTGGGAC,-0.00867 E-score
25,CAGGCCCG,-0.256 E-score

row,Sequence,binding signal
1,CAATTATC,0.239 E-score
2,CACTAGAC,0.00587 E-score
3,CTCAGTTC,0.108 E-score
4,GAGTCGGA,-0.353 E-score
5,AAGTTAAA,0.219 E-score
6,AACGGTGT,0.011 E-score
7,CATGATAA,0.2 E-score
8,GTATTCAC,-0.00894 E-score
9,CAGCGCTC,-0.258 E-score
10,ATGCCAGC,0.00272 E-score
11,GATAAGGA,-0.0856 E-score
12,CCGCTAAC,-0.0411 E-score
13,ACTCTCGG,0.16 E-score
14,TAAGTGGA,-0.0333 E-score
15,TCAACGCA,0.129 E-score
16,GCTCGGGA,-0.223 E-score
17,CAGGGGCC,-0.294 E-score
18,CATACGAA,-0.0328 E-score
19,AGTAAAGC,-0.16 E-score
20,AGAAGGAG,-0.224 E-score
21,AAACAGAT,0.0906 E-score
22,ACGCATCA,-0.0338 E-score
23,CCTTACAC,-0.00833 E-score
24,AAAGTGTT,0.0235 E-score
25,GCCTGACC,-0.299 E-score

row,Sequence,binding signal
1,CAAGATGC,-0.274 E-score
2,ACAAGGTG,-0.0602 E-score
3,AAGTGTGC,-0.0368 E-score
4,GGTGAGCA,-0.19 E-score
5,AAGACACT,-0.113 E-score
6,ACGAGGCC,-0.312 E-score
7,GCCCTGAC,-0.242 E-score
8,CTCATGGA,-0.0916 E-score
9,ACTGCTGA,0.128 E-score
10,ATTCCAAT,-0.0161 E-score
11,GGAGCTTA,-0.00123 E-score
12,GGATTGCC,-0.199 E-score
13,CGGATCCG,-0.189 E-score
14,CACCTCTC,-0.298 E-score
15,AAATCCGC,0.00233 E-score
16,GTACTGTA,0.219 E-score
17,CCAGAGGA,-0.0798 E-score
18,AGTACCTA,0.304 E-score
19,ACTGTGTG,0.0591 E-score
20,CAAGAACC,-0.0441 E-score
21,ATTATGAC,0.0185 E-score
22,ATCAGTAC,0.0531 E-score
23,AGCAGTTA,0.0574 E-score
24,GTGAGTCA,-0.166 E-score
25,ATCCCGCG,-0.108 E-score

row,Sequence,binding signal
1,ACGCCTGA,0.0317 E-score
2,GGGGTGGA,-0.258 E-score
3,CACATCCC,-0.234 E-score
4,ACCCACTG,-0.0641 E-score
5,GAAGCCCA,-0.375 E-score
6,AACGTCGC,0.0434 E-score
7,AAACATCT,-0.0723 E-score
8,AAATGACT,0.0718 E-score
9,ATTGATTA,0.0927 E-score
10,ATGAACCA,0.0625 E-score
11,ATATAAAG,0.135 E-score
12,GTCAAAGA,-0.117 E-score
13,CGGCCAAG,-0.0871 E-score
14,AGTCGAAG,-0.131 E-score
15,GGAAGTGA,-0.218 E-score
16,GACTTTCC,-0.0014 E-score
17,CTCGTAAG,0.0442 E-score
18,TGGACCCA,-0.261 E-score
19,ATGCCCAT,-0.129 E-score
20,CGCAATTA,0.109 E-score
21,ACCCAAAC,-0.0226 E-score
22,GCTCTCAC,-0.256 E-score
23,ACAGACTG,-0.188 E-score
24,AACCCTTA,-0.0957 E-score
25,AGATTTAT,0.275 E-score

row,Sequence,binding signal
1,AAAATGAA,0.0348 E-score
2,CAGCGAGA,-0.18 E-score
3,TATAGTAA,0.346 E-score
4,ACAATAAG,0.0445 E-score
5,TGGTGACA,0.0101 E-score
6,CAGCTTGG,-0.301 E-score
7,AAAGCAAA,0.0518 E-score
8,AAGGGTGA,-0.318 E-score
9,CAACGGGC,-0.244 E-score
10,CATACAGC,-0.208 E-score
11,TTAAGTAA,0.0756 E-score
12,AATTGTTA,0.234 E-score
13,CTACCGCC,0.136 E-score
14,GACCGCTC,-0.227 E-score
15,AACGATGG,0.0144 E-score
16,TATCAATA,0.331 E-score
17,ATCAGTGC,-0.0896 E-score
18,CCTGGAAA,0.000252 E-score
19,ATCGGGAG,-0.07 E-score
20,ATGTTAAA,0.276 E-score
21,AGCCTTTG,-0.191 E-score
22,AAATACCG,0.37 E-score
23,TTCGTAAA,0.212 E-score
24,ATAACATA,0.264 E-score
25,ATATGGTG,0.159 E-score

row,Sequence,binding signal
1,CATCCGGC,-0.262 E-score
2,CCGAGGCC,-0.171 E-score
3,GTAACTAC,0.417 E-score
4,ATCCAGAG,-0.139 E-score
5,GCGCAGAC,-0.152 E-score
6,GTGCACTA,-0.0717 E-score
7,GTGACAGA,-0.384 E-score
8,CTGGAGGC,-0.111 E-score
9,CATAAACA,-0.0659 E-score
10,AAATCTCA,0.0952 E-score
11,ATATACTA,0.436 E-score
12,GAATATTA,0.2 E-score
13,AAAAGGCT,-0.129 E-score
14,CTTGACGC,-0.0839 E-score
15,AGGCCAAG,-0.176 E-score
16,CCGAGGAA,-0.164 E-score
17,CCTGACTC,-0.324 E-score
18,ATGTCCGG,0.202 E-score
19,GTGCCCGA,-0.0978 E-score
20,CAGGGCCG,-0.287 E-score
21,AGCATAAA,0.179 E-score
22,CCTGAATC,-0.0702 E-score
23,GAGGTCTA,0.0111 E-score
24,ACCTGGAA,0.0976 E-score
25,AGTCAAAT,-0.0556 E-score

row,Sequence,binding signal
1,ATTGTGTG,0.0693 E-score
2,GAAATAAA,0.176 E-score
3,ATGCTACA,0.256 E-score
4,ATAGCTGC,0.0753 E-score
5,CAATAGAC,-0.104 E-score
6,GCTCTACC,0.0141 E-score
7,ACATGTGG,0.0717 E-score
8,TAAGCTAA,0.101 E-score
9,CGTGGCAG,-0.258 E-score
10,GGTCGTAC,0.0516 E-score
11,TAGTGAGA,0.103 E-score
12,ATCTTAAA,0.164 E-score
13,ATTGTGGA,-0.0175 E-score
14,CAACACCC,-0.102 E-score
15,ATTAAAAA,0.0424 E-score
16,GAAGCTCC,-0.178 E-score
17,ATCTGGTC,0.0789 E-score
18,ACGGTCTG,-0.0561 E-score
19,CTACGTTC,0.0573 E-score
20,GATGCGAA,-0.0687 E-score
21,AAAAGGAC,-0.208 E-score
22,CGACGTAA,0.109 E-score
23,AACGTCTT,-0.219 E-score
24,GTACTAGA,0.221 E-score
25,CATCGCGG,-0.205 E-score

row,Sequence,binding signal
1,CGTAGCGA,0.052 E-score
2,TATTCTCA,0.136 E-score
3,AACGCCGG,-0.211 E-score
4,CTCAGATA,-0.0638 E-score
5,ATAGTCGC,-0.0126 E-score
6,GCGGGGGA,-0.179 E-score
7,TCGGTTCA,-0.175 E-score
8,CTATAGAC,0.0974 E-score
9,AGGTAATG,0.113 E-score
10,GGGTGCAA,0.0496 E-score
11,CTAGTCTC,-0.00792 E-score
12,CCACGCAC,-0.103 E-score
13,ACAACAAT,0.217 E-score
14,GCACGACC,-0.0572 E-score
15,ACCATACC,0.0865 E-score
16,ATACGAGC,0.0328 E-score
17,ACTTACAG,-0.0858 E-score
18,CTGCATCA,-0.145 E-score
19,GATTCTAC,0.406 E-score
